According to patent publication US20250019440A1 (Zymeworks, published 2025):

B1: v38422 (other)
heavy 1: NPPTFSPALLVVTEGDNATFTCSFSNTSESFVLNWYRMSPSNQTDALAAFPEDRSQPGQDARFRVTQLPNGRDFHMSVVRARRNDSGTYLCGAASLAPKAQIKESLRAELRVTEGGGGSGEVQLVESGGGLVQPGGSLRLSCAASGVTFNYYGMSWIRQAPGKGLEWVASITSSGGRIYYPDSVKGRFTISRENTQKTLYLQMNSLRAEDTAVYYCTLDGRDGWVAYWGQGTLVTVSSASTKGPSVFPLAPSSKSTSGGTAALGCLVKDYFPEPVTVSWNSGALTSGVHTFPAVLQSSGLYSLSSVVTVPSSSLGTQTYICNVNHKPSNTKVDKK[human IgG1 Fc with changes not shown]
light: NFMLTQPHSVSESPGKTVTISCKRNTGNIGSNYVNWYQQHEGSSPTTIIYRNDKRPDGVSDRFSGSIDRSSKSASLTISNLKTEDEADYFCQSYSSGFIFGGGTKLTVLGQPKAAPSVTLFPPSSEELQANKATLVCLISDFYPGAVTVAWKADSSPVKAGVETTTPSKQSNNKYAASSYLSLTPEQWKSHRSYSCQVTHEGSTVEKTVAPTECS
heavy 2: QVQLVESGGGLVQPGGSLRLSCSVSGIDLSSNPMIWVRQAPGKGLQYIGIIDTDGSTYYADWAKGRFTISKDSTTVYLQINSPRAEDTAVYYCARRLHGSSNGYYDDLWGQGTLVTVSSGGGGSGGGGSGGGGSGGGGSDGQMTQSPSSVSASVGDRVTITCQASQSIYSYLSWYQQKPGQRPKLLIYKASTLASGVPSRFSGSGSGTDFTLTISSVQPEDFATYYCQQGYTVTNVDKNTFGGGTKVEIKAAEPKSSDKTHTCPPCPAPEAAGGPSVFLFPPKPKDTLMISRTPEVTCVVVSVSHEDPEVKFNWYVDGVEVHNAKTKPREEQYNSTYRVVSVLTVLHQDWLNGKEYKCKVSNKALPAPIEKTISKAKGQPREPQVYVLPPSRDELTKNQVSLLCLVKGFYPSDIAVEWESNGQPENNYLTWPPVLDSDGSFFLYSKLTVDKSRWQQGNVFSCSVMHEALHNHYTQKSLSLSPG
B2: v38403 (other)
heavy 1: NPPTFSPALLVVTEGDNATFTCSFSNTSESFVLNWYRMSPSNQTDKLAAFPEDRSQPGQDARFRVTQLPNGRDFHMSVVRARRNDSGTYLCGAISLAPKAQIKESLRAELRVTEEAAAKEAAAKEVQLVESGGGLVQPGGSLRLSCAASGVTFNYYGMSWIRQAPGKGLEWVASITSSGGRIYYPDSVKGRFTISRENTQKTLYLQMNSLRAEDTAVYYCTLDGRDGWVAYWGQGTLVTVSSASTKGPSVFPLAPSSKSTSGGTAALGCLVKDYFPEPVTVSWNSGALTSGVHTFPAVLQSSGLYSLSSVVTVPSSSLGTQTYICNVNHKPSNTKVDKK[human IgG1 Fc with changes not shown]
light: NFMLTQPHSVSESPGKTVTISCKRNTGNIGSNYVNWYQQHEGSSPTTIIYRNDKRPDGVSDRFSGSIDRSSKSASLTISNLKTEDEADYFCQSYSSGFIFGGGTKLTVLGQPKAAPSVTLFPPSSEELQANKATLVCLISDFYPGAVTVAWKADSSPVKAGVETTTPSKQSNNKYAASSYLSLTPEQWKSHRSYSCQVTHEGSTVEKTVAPTECS
heavy 2: [about 100 residues not shown]GGSGGGSGGGSGGGSGGGSG[about 120 residues not shown][about 250 residues not shown]
notes: CD3 x Her2 Fab x scFv Fc, wildtype (WT) PD-1 attached to CD3 HC
B3: v38400 (other)
heavy 1: [about 120 residues not shown]AAAKEAAAKEVQLVESGGGLVQPGGSLRLSCAASGVTFNYYGMSWIRQAPGKGLEWVASITSSGGRIYYPDSVKGRFTISRENTQKTLYLQMNSLRAEDTAVYYCTLDGRDGWVAYWGQGTLVTVSSASTKGPSVFPLAPSSKSTSGGTAALGCLVKDYFPEPVTVSWNSGALTSGVHTFPAVLQSSGLYSLSSVVTVPSSSLGTQTYICNVNHKPSNTKVDKK[human IgG1 Fc with changes not shown]
light: NFMLTQPHSVSESPGKTVTISCKRNTGNIGSNYVNWYQQHEGSSPTTIIYRNDKRPDGVSDRFSGSIDRSSKSASLTISNLKTEDEADYFCQSYSSGFIFGGGTKLTVLGQPKAAPSVTLFPPSSEELQANKATLVCLISDFYPGAVTVAWKADSSPVKAGVETTTPSKQSNNKYAASSYLSLTPEQWKSHRSYSCQVTHEGSTVEKTVAPTECS
heavy 2: [about 100 residues not shown]GGSGGGSGGGSGGGSGGGSG[about 120 residues not shown][about 250 residues not shown]
B4: v38404 (other)
heavy 1: NPPTFSPALLVVTEGDNATFTCSFSNTSESFVLNWYRMSPSNQTDKLAAFPEDRSQPGQDARFRVTQLPNGRDFHMSVVRARRNDSGTYLCGAISLAPKLQIKESLRAELRVTEEAAAKEAAAKEVQLVESGGGLVQPGGSLRLSCAASGVTFNYYGMSWIRQAPGKGLEWVASITSSGGRIYYPDSVKGRFTISRENTQKTLYLQMNSLRAEDTAVYYCTLDGRDGWVAYWGQGTLVTVSSASTKGPSVFPLAPSSKSTSGGTAALGCLVKDYFPEPVTVSWNSGALTSGVHTFPAVLQSSGLYSLSSVVTVPSSSLGTQTYICNVNHKPSNTKVDKK[human IgG1 Fc with changes not shown]
light: NFMLTQPHSVSESPGKTVTISCKRNTGNIGSNYVNWYQQHEGSSPTTIIYRNDKRPDGVSDRFSGSIDRSSKSASLTISNLKTEDEADYFCQSYSSGFIFGGGTKLTVLGQPKAAPSVTLFPPSSEELQANKATLVCLISDFYPGAVTVAWKADSSPVKAGVETTTPSKQSNNKYAASSYLSLTPEQWKSHRSYSCQVTHEGSTVEKTVAPTECS
heavy 2: [about 100 residues not shown]GGSGGGSGGGSGGGSGGGSG[about 120 residues not shown][about 250 residues not shown]
B5: v38405 (other)
heavy 1: NPPTFSPALLVVTEGDNATFTCSFSNTSESFRLVWHRESPGYETDTLASFPEDRSTPLPDARFRVTQLPNGRDFHMSVVRARRNDSGTYVCGAIAFHPVIQIKESLRAELRVTEEAAAKEAAAKEVQLVESGGGLVQPGGSLRLSCAASGVTFNYYGMSWIRQAPGKGLEWVASITSSGGRIYYPDSVKGRFTISRENTQKTLYLQMNSLRAEDTAVYYCTLDGRDGWVAYWGQGTLVTVSSASTKGPSVFPLAPSSKSTSGGTAALGCLVKDYFPEPVTVSWNSGALTSGVHTFPAVLQSSGLYSLSSVVTVPSSSLGTQTYICNVNHKPSNTKVDKK[human IgG1 Fc with changes not shown]
light: NFMLTQPHSVSESPGKTVTISCKRNTGNIGSNYVNWYQQHEGSSPTTIIYRNDKRPDGVSDRFSGSIDRSSKSASLTISNLKTEDEADYFCQSYSSGFIFGGGTKLTVLGQPKAAPSVTLFPPSSEELQANKATLVCLISDFYPGAVTVAWKADSSPVKAGVETTTPSKQSNNKYAASSYLSLTPEQWKSHRSYSCQVTHEGSTVEKTVAPTECS
heavy 2: [about 100 residues not shown]GGSGGGSGGGSGGGSGGGSG[about 120 residues not shown][about 250 residues not shown]

Columns and labels:
Human CD3 (recombinant) = Human CD3 (recombinant) (human); assay: SPR, CD3 amine-coupled, variant as analyte, 1:1 model
Cynomolgus monkey PD-L1 = target: T1, Cynomolgus monkey PD-L1 (cynomolgus monkey, UniProt G7PSE7 19-239); assay: SPR, PD-L1 amine-coupled, variant as analyte, 1:1 model
T1 construct: Amine-coupled to a CM5 chip for SPR; also called recombinant cynomolgus monkey PD-L1

Mouse PD-L1 = target: T2, Mouse PD-L1 (mouse, UniProt Q9EP73 part only, limits assumed); assay: as above
T2 construct: Amine-coupled to a CM5 chip for SPR; also called recombinant mouse PD-L1

Human PD-L1 = target: T3, Human PD-L1 (human, UniProt Q9NZQ7 part only); assay: as above
T3 construct: Amine-coupled to a CM5 chip for SPR; also called recombinant human PD-L1

Chain of Cynomolgus monkey PD-L1 (G7PSE7 entry or part of it): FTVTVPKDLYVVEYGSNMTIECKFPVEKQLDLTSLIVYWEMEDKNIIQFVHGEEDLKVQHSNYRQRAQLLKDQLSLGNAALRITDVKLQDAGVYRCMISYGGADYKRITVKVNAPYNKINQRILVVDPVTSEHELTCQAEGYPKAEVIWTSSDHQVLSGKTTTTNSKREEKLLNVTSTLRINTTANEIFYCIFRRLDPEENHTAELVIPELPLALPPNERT
Chain of Mouse PD-L1 (Q9EP73 19-238 limits assumed): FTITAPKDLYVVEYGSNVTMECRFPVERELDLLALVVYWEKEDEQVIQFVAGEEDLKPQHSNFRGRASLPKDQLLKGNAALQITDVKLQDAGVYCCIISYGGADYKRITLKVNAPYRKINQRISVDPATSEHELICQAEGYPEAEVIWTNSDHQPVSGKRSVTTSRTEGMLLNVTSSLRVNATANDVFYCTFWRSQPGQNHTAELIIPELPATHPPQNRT
Chain of Human PD-L1 (Q9NZQ7 19-239 limits assumed): as the sequence (G7PSE7 entry or part of it) above, with T33A, S34A, N62S, Q68R, R82Q, L173F, A185T, I192T, L215H counted along it
Chain of Human CD3 (recombinant) (chain, as listed by the source): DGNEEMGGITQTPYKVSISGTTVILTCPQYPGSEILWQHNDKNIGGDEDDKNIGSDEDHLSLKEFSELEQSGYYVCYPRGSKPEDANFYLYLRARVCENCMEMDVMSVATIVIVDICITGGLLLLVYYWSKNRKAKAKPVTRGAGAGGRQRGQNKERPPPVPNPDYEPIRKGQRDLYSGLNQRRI

Kd (Human CD3 (recombinant))	Kd (Cynomolgus monkey PD-L1)	Kd (Mouse PD-L1)	Kd (Human PD-L1)	Binder
4 nM				B1
	> 1000 nM	> 1000 nM		B2
	1.2 nM	9.4 nM	1.3 nM	B3
	330 nM	300 nM	110 nM	B4
	62 nM	1.7 nM	39 nM	B5
